From a compilation of properties of binary mixtures (doi:10.1021/je00013a028)
Some of these densities may be calculated back from excess volumes.

Experiment: xn = mol fraction of the nth substance listed
Conditions: 298.15 K, 100 kPa

C1COCCO1 + COC(=O)OC
Conditions | mass density [kg/m3]
x2 = 0.0173 | 1028.6
x2 = 0.1766 | 1033.1
x2 = 0.3783 | 1039.5
x2 = 0.4669 | 1042.6
x2 = 0.4758 | 1042.9
x2 = 0.5098 | 1044.1
x2 = 0.56 | 1045.5
x2 = 0.6417 | 1048.9
x2 = 0.724 | 1052.1
x2 = 0.7668 | 1053.8
x2 = 0.8544 | 1057.3
x2 = 0.9108 | 1059.6

C1COCO1 + COC(=O)OC
Conditions | mass density [kg/m3]
x2 = 0.0396 | 1058.9
x2 = 0.1136 | 1059.2
x2 = 0.1891 | 1059.6
x2 = 0.2516 | 1059.9
x2 = 0.2875 | 1060
x2 = 0.3347 | 1060.3
x2 = 0.3646 | 1060.4
x2 = 0.3996 | 1060.6
x2 = 0.419 | 1060.6
x2 = 0.4601 | 1060.8
x2 = 0.5048 | 1061
x2 = 0.5236 | 1061.1
x2 = 0.582 | 1061.4
x2 = 0.6563 | 1061.7
x2 = 0.7058 | 1061.9
x2 = 0.8082 | 1062.4
x2 = 0.8669 | 1062.7

COCCOC + COC(=O)OC
Conditions | mass density [kg/m3]
x1 = 0.0157 | 1059.4
x2 = 0.087 | 876.5
x2 = 0.2114 | 898
x2 = 0.2677 | 908
x2 = 0.3292 | 919.2
x2 = 0.378 | 928.9
x2 = 0.3792 | 928.6
x2 = 0.4013 | 932.8
x2 = 0.4328 | 938.8
x2 = 0.495 | 951
x2 = 0.5065 | 953.2
x2 = 0.5509 | 962.1
x2 = 0.6579 | 984.3
x2 = 0.7347 | 1000.1
x2 = 0.8064 | 1017
x2 = 0.8606 | 1029.5
x2 = 0.9243 | 1044.7

C1CCOCC1 + COC(=O)OC
Conditions | mass density [kg/m3]
x1 = 0.0128 | 1060.3
x1 = 0.0146 | 1059.9
x2 = 0.0187 | 881.8
x2 = 0.0848 | 891.4
x2 = 0.1845 | 906.6
x2 = 0.2583 | 918.3
x2 = 0.4147 | 944.7
x2 = 0.4446 | 949.9
x2 = 0.473 | 955
x2 = 0.4953 | 959
x2 = 0.5346 | 966.3
x2 = 0.5952 | 977.7
x2 = 0.5968 | 978
x2 = 0.6618 | 990.6
x2 = 0.746 | 1007.6
x2 = 0.8006 | 1018.9
x2 = 0.8812 | 1036.3
x2 = 0.9072 | 1042.1

C1CCOC1 + COC(=O)OC
Conditions | mass density [kg/m3]
x2 = 0.1237 | 904.3
x2 = 0.1349 | 906.8
x2 = 0.2361 | 924.8
x2 = 0.3011 | 935.9
x2 = 0.3218 | 939.6
x2 = 0.3502 | 944.7
x2 = 0.4333 | 959.6
x2 = 0.4377 | 960.4
x2 = 0.4702 | 966.2
x2 = 0.4929 | 970.3
x2 = 0.548 | 980.2
x2 = 0.7095 | 1009.6
x2 = 0.8261 | 1031
x2 = 0.9697 | 1057.7

COCOC + COC(=O)OC
Conditions | mass density [kg/m3]
x1 = 0.0159 | 1059.9
x2 = 0.0165 | 860.3
x2 = 0.0996 | 877.1
x2 = 0.1676 | 890.8
x2 = 0.2915 | 916.1
x2 = 0.3434 | 926.6
x2 = 0.4013 | 938.5
x2 = 0.4448 | 947.4
x2 = 0.4698 | 952.5
x2 = 0.5011 | 958.9
x2 = 0.5614 | 971.3
x2 = 0.7266 | 1005.8
x2 = 0.7976 | 1020.4
x2 = 0.8348 | 1028.3
x2 = 0.9228 | 1046.9
